Assay results published in PubChem BioAssay AID1346428 (National Center for Advancing Translational Sciences (NCATS), 2018).
Where “and” joins values, the source holds several entries; their conditions need not be identical. Equal entries are not always repeated. Screen size: about 48,000 compounds; about 1,200 (2.5%) were called active. Roughly 2% stayed inconclusive and do not appear here.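 The calls were made as follows: active = activation of at least 60% and not above a set upper limit (about 1 call in 100 departs from these limits); inconclusive = activation of 40% to 60%, or above that upper limit; inactive = activation under 40%.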 The list shows a part of the results.

What follows are compounds tested against Probable G-protein coupled receptor 32 (Homo sapiens) (UniProt O75388) (assay: qHTS for Agonists of Human Resolvin D1 Receptor DRV1). Conditions: CHO-K1 GPR32 beta-arrestin PathHunter luminescence, 90 min; at 76.9 µM; stronger effect = higher value; zero percent set by DMSO-only wells.
Summary of the method: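 CHO-K1 cells stably expressing ProLink-tagged GPR32 and Enzyme Activator-tagged beta-arrestin were seeded at 2,500 cells/well overnight, exposed to compounds for 90 min at 37 °C, then read by beta-Gal complementation chemiluminescence after 1 h detection reagent.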
Also: 0% is about no effect.

Chain of UniProt O75388 (O75388 whole entry, looked up): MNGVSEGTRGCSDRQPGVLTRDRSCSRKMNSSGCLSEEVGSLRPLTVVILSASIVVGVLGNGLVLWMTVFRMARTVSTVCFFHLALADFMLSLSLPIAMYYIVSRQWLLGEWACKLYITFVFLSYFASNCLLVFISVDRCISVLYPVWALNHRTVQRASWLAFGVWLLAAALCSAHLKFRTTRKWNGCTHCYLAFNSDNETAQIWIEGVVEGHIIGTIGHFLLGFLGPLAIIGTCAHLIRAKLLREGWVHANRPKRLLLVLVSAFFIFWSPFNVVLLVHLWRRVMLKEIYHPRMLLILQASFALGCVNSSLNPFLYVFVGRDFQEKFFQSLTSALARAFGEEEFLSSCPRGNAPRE

SMILES | activation
O=C(NCc1cccc(Cl)c1)c1ccc2c(c1)nc1n2CCOC1 | inactive: -10.2%
CC(=O)c1ccc(NC(=O)c2cn(C)c(=O)c3ccccc23)cc1 | inactive: -15.1%
O=C(NC1CC(=O)N(c2ccccc2)C1)c1cccs1 (centres undefined) | inactive: 0.0942%
COc1ccc(NS(=O)(=O)c2ccc(N)cc2)nn1 | inactive: 14.2%
COc1ccc(-c2nc(CCNC(=O)Cc3ccc(F)cc3)cs2)cc1 | inactive: -16.3%
Nc1ccc(C(=O)NCC(=O)O)cc1 | inactive: 2.97%
c1ccc(CNc2ncnc3[nH]ncc23)cc1 | inactive: 36.6%
CCOC(=O)N1CCc2c(sc3c2c(=O)n(CCc2ccccc2)c(=O)n3Cc2ccc(C)cc2C)C1 | inactive: -13.8%
Cc1cccc(C(=O)Nc2nc3c(s2)CCCC3)c1 | inactive: -12.4%
CCOCCc1nn2c(=O)cc(COC(=O)c3ccccc3NC(=O)c3cccs3)nc2s1 | inactive: -8.46%
CSc1ccc(CCNC(=O)c2ccc3c(c2)nc2n3CCC(C)C2)cc1 (centres undefined) | inactive: -6.48%
COc1ccc(N2CCN(C(=O)c3c(C)nn(-c4ccc(F)cc4)c3-n3cccc3)CC2)cc1 | inactive: -5.44%
CCc1ccccc1NC(=O)N1CC(CC)Oc2ccc(Cl)cc21 (centres undefined) | inactive: -20.3%
COc1ccc(CCNC(=O)c2cc3cccc4c3n2CC(C)S4)c(OC)c1OC (centres undefined) | inactive: -24.3%
CCCC(=O)Nc1c(C(=O)N2CCN(c3ccccc3)CC2)oc2ccccc12 | inactive: -20.4%
CC(C)c1ccc(S(=O)(=O)Nc2cc3c(cc2NCc2ccccc2)n(C)c(=O)n3C)cc1 | inactive: 46.7%
COc1ccccc1C(=O)N1CCC(c2c[nH]c3ccccc23)(c2c[nH]c3ccccc23)CC1 | inactive: -35.9%
O=C(CSc1nc(-c2ccccc2)[nH]c1-c1ccc(F)cc1)NC1CCCC1 | inactive: -19.7%
CCC(=O)N1CCc2cc(S(=O)(=O)NC(Cc3ccccc3)C(=O)Nc3ccc(Cl)cc3)ccc21 (centres undefined) | inactive: -17.5%
CCOc1ccccc1NC(=O)Cn1c(=O)n(Cc2ccco2)c(=O)c2cccnc21 | inactive: -18.7%
CC(C)(C)c1ccc(C(=O)Nc2ccc3nc(SCC(=O)N4CCCC4)sc3c2)cc1 | inactive: 24.6%

SMILES | activation
COc1ccccc1C(=O)CC1(O)C(=O)N(CC(N)=O)c2ccccc21 (centres undefined) | inactive: 0.352%
CCc1ccccc1NC(=O)C1=CC(c2ccc3c(c2)OCO3)=NS(=O)(=O)N1C | inactive: -19.7%
O=C(CN1C(=O)COc2ccc(S(=O)(=O)N3CCCCCC3)cc21)N1CCN(c2cccc(Cl)c2)CC1 | inactive: -18.4%
CC(C)(C)OC(=O)N1CCC(c2c(C(=O)O)cnn2-c2ccc(F)cc2F)CC1 | inactive: 10.7%
O=C(C1COc2cc(S(=O)(=O)Nc3ccc(Cl)cc3)ccc2O1)N1CCCC1 (centres undefined) | inactive: -4.39%
COc1ccc(C(=O)c2cn(Cc3ccc(F)cc3)c3c(F)cc(F)cc3c2=O)cc1 | inactive: 4.22%
Fc1ccc(-c2nnc(CN3CCN(c4ccccn4)CC3)o2)cc1 | inactive: 1.21%
CC(C)NS(=O)(=O)c1ccc(OCC(=O)N2CCN(c3cccc(Cl)c3)CC2)cc1 | inactive: 34.8%
COc1cc(C2C(C(=O)Nc3ccccc3)=C(C)Nc3nc(SCC(=O)c4ccc(C)cc4)nn32)ccc1O (centres undefined) | inactive: 15.6%
O=C(Cn1ncc2c3ccccc3n(Cc3ccccc3)c2c1=O)NCc1ccccc1 | inactive: 15%
COC(=O)c1c(NC(=O)CCCOc2cccc(C)c2)sc2c1CCC(C)C2 (centres undefined) | inactive: -3.77%
CCc1ccccc1N(C)C(=O)c1cc2c(s1)-c1c(C)cccc1OC2 | inactive: -34.3%
Cc1ccc(Cn2c(C)c(CNCc3ccccc3F)c(C(=O)O)c2C)cc1 | inactive: 13.2%
COc1ccccc1C(=O)Nc1ccc(-c2nc3cc(C)cc(C)c3o2)cc1 | inactive: -8.3%
Cc1ccc(NC(=O)CSc2nc3ccc(NC(=O)c4cccc(Cl)c4)cc3s2)c(C)c1 | inactive: -17.2%
CCOC(=O)c1ccc(N2C(=O)c3n[nH]c(-c4ccco4)c3C2c2cccc(F)c2)cc1 (centres undefined) | inactive: 23%
CCC[C@H](N[C@@H](C)C(=O)N1[C@H](C(=O)O)C[C@@H]2CCCC[C@@H]21)C(=O)OCC | inactive: 5.79%
CCc1ccc(S(=O)(=O)c2nnn3c2nc(N2CCN(CC)CC2)c2sccc23)cc1 | inactive: -4.76%
CC(=O)N1CCc2cc(CNS(=O)(=O)c3cccs3)ccc21 | inactive: -5.63%
COc1ccc(-c2nnc(SCC(=O)Nc3cccc(C)c3)s2)cc1 | inactive: 4%
CCOC(=O)c1c(NC(=O)CSc2cn(CCNC(=O)c3ccc(OC)cc3)c3ccccc23)sc2c1CCC2 | inactive: -0.0515%

SMILES | activation
COc1ccc(NC(=O)CSc2nc(-c3ccccc3)cc(-c3cc(OC)c(OC)c(OC)c3)c2C#N)c(OC)c1 | inactive: -4.55%
COc1ccccc1-c1cc(C(=O)Nc2c(C)nn(Cc3ccc(Cl)cc3)c2C)no1 | active: 72.3%
CCCCOC(=O)c1ccc(NC(=O)C2(c3cccs3)CCOCC2)cc1 | inactive: 1.21%
CCCCN(CCCNC(=O)c1cc(Nc2ccc(OC)cc2OC)nc2ccccc12)Cc1ccccc1 | inactive: -4.69%
COc1ccc(NC(=O)CSc2nccn2C2CCCC2)cc1OC | inactive: 4.72%
Cc1nn(CC(=O)Nc2ccc(C(C)C)cc2)c(=O)c2c(C)n(-c3ccc(Cl)cc3)nc12 | inactive: -10.1%
COc1ccc(-c2cn3nc(N4CCCC(C(=O)Nc5ccccc5F)C4)sc3n2)cc1 (centres undefined) | inactive: -7.84%
CCOc1ccccc1N(C)C(=O)c1sc2nc3n(c(=O)c2c1C)CCCC3 | inactive: -8.78%
COc1ccc(NC(=O)C(c2ccc(OC)cc2)N(C)C(=O)Cc2cccs2)cc1 (centres undefined) | inactive: -9.22%
Cn1ccc2cc(S(=O)(=O)N3CCN(C(=O)Nc4cccc(F)c4)CC3)ccc21 | inactive: 9.86%
Cc1ccc(Cn2cc(S(=O)(=O)c3ccccc3)c(=O)c3cc(F)c(N4CCOCC4)cc32)cc1 | inactive: -11.3%
COc1ccccc1N1CCN(S(=O)(=O)CCNC(=O)c2cc(=O)c3ccccc3o2)CC1 | inactive: -12.3%
CC(C)(Oc1ccc(Cl)cc1)C(=O)Nc1ccc(-c2nc3ncccc3o2)cc1 | inactive: 16.1%
CC(C)C(C)(C)C(C)(C)C(C)(C)S | inactive: -34.3%
COc1ccc(C(CNC(=O)COc2cc(C)c(Cl)c(C)c2)N2CCCCC2)cc1 (centres undefined) | inactive: -12.1%
Cc1ccccc1C(=O)Nc1cccc(-c2nc3cccnc3s2)c1 | inactive: -4.69%
COc1ccc2c(c1)c1c3n2CCN(C)C3=NCC1 | inactive: 9.39%
O=C(CSc1nc(=O)n(Cc2ccncc2)c2c1CCC2)Nc1ccccc1 | inactive: -2.96%
COc1cccc(N2CCN(C(=O)CCn3nc(C)c(S(=O)(=O)N4CCCC4)c3C)CC2)c1 | inactive: 7.98%
COc1ccc(Cn2ccc3nc(C)c(C(=O)Nc4ccc(OC)c(OC)c4)cc3c2=O)cc1 | inactive: 12.7%
OCCN1CCN(CCCN2c3ccccc3Sc3ccc(Cl)cc32)CC1 | inactive: 25.6% and inactive: -28.4%

SMILES | activation
COc1cccc(CNC(=O)CCc2c(C)c3cc4c(C)coc4cc3oc2=O)c1 | inactive: 41.7%
CCCN(CCC)C(=O)c1c[nH]c2ccc(S(=O)(=O)N(C)c3ccc(Cl)cc3)cc2c1=O | inactive: -8.34%
COc1ccc(-c2c3c(=O)n(C)c(=O)n(C)c3c3n2-c2ccccc2NC3c2ccccc2OC)cc1 (centres undefined) | inactive: -17.2%
COC(=O)c1ccc(NC(=O)c2cc3cc(C)ccc3n2C)cc1 | inactive: -5.36%
Nc1ccc(S(=O)(=O)c2ccc(N)cc2)cc1 | inactive: 2.01%
CCOc1ccc(NC(=O)CSc2nnc3c(C)cc4ccccc4n23)cc1 | inactive: -7.84%
COc1ccc(S(=O)(=O)N2CCC(C(=O)Nc3ccc(Oc4ccccc4)cc3)CC2)cc1OC | inactive: 48.2%
CCCCSCCCNC(=O)c1cn(CC)c2ccc(S(=O)(=O)N3CCOCC3)cc2c1=O | inactive: -1.46%
COc1ccc(NC(=O)c2ccc(-c3nc(COc4ccccc4)c(C)o3)cc2)cc1 | inactive: 3.62%
OC[C@H]1O[C@@H](Oc2ccc(O)cc2)[C@H](O)[C@@H](O)[C@@H]1O | inactive: 3.04%
Cc1cccc(NC(c2cccc(Cl)c2)c2ccc3cccnc3c2O)n1 (centres undefined) | inactive: -13.1%
COc1cc(NC(=O)Nc2nnc(N3CCCCC3)s2)cc(OC)c1 | inactive: -1.52%
COC(=O)c1ccccc1NC(=O)Cn1nc(C)c2nn(-c3ccc(Cl)cc3)c(C)c2c1=O | inactive: -0.0914%
CCCn1c2ccccc2c2cnn(CC(=O)Nc3ccccc3OC)c(=O)c21 | inactive: -20.6%
O=c1c2[nH]c3ccccc3c2nc(SCc2ccccc2F)n1-c1ccc(F)cc1 | inactive: 19.3%
CCc1ccccc1NC(=O)Cn1nc(-c2cc(C)ccc2C)c2c(c1=O)CCCC2 | inactive: -6.22%
CC1CCc2nc3ccc(S(=O)(=O)N4CCC(C(=O)NCc5ccccc5Cl)CC4)cc3c(C(=O)O)c2C1 (centres undefined) | inactive: -31.7%
Cc1nn(-c2ccccc2)c2c1N(CCCC(=O)NCc1ccc(OC(C)C)cc1)C(=O)CS2 | inactive: -14.5%
Cc1ccc2c(CC(=O)Nc3ccc(S(=O)(=O)N4CCC(C)CC4)cc3)coc2c1 | inactive: -4.22%
COc1ccc(Cl)cc1NC(=O)C1CCCN(S(=O)(=O)c2ccc3c(c2)CCCC(=O)N3)C1 (centres undefined) | inactive: -4.67%
Cc1ccc(CNC(=O)c2ccc3oc(=O)n(Cc4ccccc4)c3c2)cc1 | inactive: 10.2%
